Test results from PubChem BioAssay AID2060500 (Molecular Pharmacology Branch, DTP, NCI, 2025).
A number of entries come with more than one value. The list is limited to them. An entry can have further records. Values given together are repeats in other runs, samples, wells, individuals or studies.

Tested on: 596521-263-R-J1-PDC complex spheroids, viability % of control
Experiment: Anticancer human tumor 596521-263-R-J1-PDC patient-derived soft tissue sarcoma cell line growth inhibition [GQUAD]
Details: for IC50: compound alone; for viability, T/C: stronger effect = lower value
Source text: DNA G-quadruplex Stabilizer Agents in Combinations in Complex Spheroids
A high-throughput screen of multi-cell type tumor spheroids was designed to identify active combinations of DNA G-quadruplex stabilizer agents and targeted small molecules. Complex spheroids include a stromal component modeled by human endothelial cells (HUVEC) and fibroblasts modeled by human mesenchymal stem cells (MSCs). The concentration ranges selected for each drug and investigational agent were based upon clinically achievable concentrations if the clinical Cmax of the agent was known.
Compounds. The drugs and investigational agents: pidnarulex (CX-5461; NSC782164), APTO-253 (NSC789042), BRACO-19 (NSC847499), peposertib (NSC802822), ceralasertib (NSC780249), elimusertib (NSC800525), camonsertib (NSC841442), AZD-1390 (NSC803789), olaparib (NSC753686), talazoparib (NSC767125), ART-558 (NSC835418), sotorasib (NSC818433), MRTX-1133 (NSC836407), SN-38 (NSC673596), topotecan (NSC609699), etoposide (NSC141540), doxorubicin (NSC123127), gemcitabine (NSC613327), 5-fluorouracil (NSC19893), paclitaxel (NSC125973), vemurafenib (NSC761431), panobinostat (NSC761190), R-306465 (JNJ-16241199; NSC773264), adavosertib (NSC754352), TP-3654 (NSC805149), carboplatin (NSC241240), KSQ-4279 (NSC840948), and staurosporine (NSC755774) were obtained from the National Cancer Institute (NCI) Developmental Therapeutics Program Chemical Repository (34). The FDA-approved anticancer drug set is available from the NCI Developmental Therapeutics Program. […] The stock solutions were prepared in dimethyl sulfoxide (DMSO, Sigma-Aldrich, St. Louis, MO, cat. D2650) at 800-fold the tested concentration and stored at -70 degrees C prior to their use. All drugs and investigational agents were tested over a range starting from a high concentration at or near the clinical Cmax and decreasing in half-log increments. If the clinical Cmax for an agent had not been determined, the highest concentration tested was 10 microM.
2.3 Cell Culture. All cells were maintained in an incubator at 37 degrees C and 5% CO2 with 95% humidity. The PDC lines were cultured according to standard operating procedures established by the NCI PDMR. All PDCs were thawed and cultured in Matrigel-coated flasks prepared with a working solution of 1X Ham's F-12 nutrient mix, without supplementation (Invitrogen, cat. 11765054), 100 U/mL penicillin-streptomycin (Invitrogen, cat. 15140122), and 2.5% Matrigel (Corning Inc., cat. 354248) for the first three passages. The 857933-349-R-J2-PDC line was cultured in 6C/Colon 1B media, which includes advanced DMEM/F-12 (Thermo Fisher Scientific, cat. 12634028), 10 mM HEPES (Thermo Fisher Scientific, cat. 15630080), 1X GlutaMAX supplement (Thermo Fisher Scientific, cat. 35050061), 0.1 mg/mL primocin (InvivoGen, cat. ant-pm-2), 10% defined fetal bovine serum, heat inactivated (HyClone Laboratories Inc., cat. SH30070.03HI), 50% L-WRN conditioned media (ATCC, cat. CRL-3276), 1.25 mM N-Acetyl-L-cysteine (Sigma-Aldrich, cat. A9165), 10 mM nicotinamide (Sigma-Aldrich, cat. N0636), 1X B-27 supplement (Thermo Fisher Scientific, cat. 17504044), 1X N-2 supplement (Thermo Fisher Scientific, cat. 17502048), 10 microM Y-27632 dihydrochloride (Tocris Bioscience, cat. 1254), and 50 ng/mL human EGF recombinant protein (Thermo Fisher Scientific, cat. PHG0311). The 485176-168-R4-J1-PDC line was cultured in Panc media, which includes all 6C/Colon 1B media components plus 100 ng/mL human FGF-10 (Thermo Fisher Scientific, cat. 100-26), 500 nM SB-431542 (Selleckchem, cat. S1067), and gastrin (Tocris, cat. 3006).
[…]
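Also: spheroids exposed to drugs for 7 days before viability reading.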

In the case of `CCCS(=O)(=O)Nc1ccc(F)c(C(=O)c2c[nH]c3ncc(-c4ccc(Cl)cc4)cc23)c1F`, the IC50 is reported as 7.12 µM, 435 nM, 5.16 µM.

`CC(=O)O[C@H]1C(=O)[C@@]2(C)[C@H]([C@H](OC(=O)c3ccccc3)[C@]3(O)C[C@H](OC(=O)[C@H](O)[C@@H](NC(=O)c4ccccc4)c4ccccc4)C(C)=C1C3(C)C)[C@]1(OC(C)=O)CO[C@@H]1C[C@@H]2O` was tested, and the viability, T/C (compound alone 1 µM) was 28.5%, 0.82%, 26.9%, the viability, T/C (compound alone 3.16 µM) was 29.7%, 0.45%, 28.8% and the viability, T/C (compound alone 10 µM) was 27.8%, 0.32%, 28%.

`Cc1cnc(CNC(=O)c2c(=O)c3ccc(N4CCCN(C)CC4)nc3n3c2sc2ccccc23)cn1` was tested, and the IC50 (run of 04/16/2024) was 5.66 µM, 7.67 µM, 3.47 µM, 7.04 µM, > 10 µM, 3.69 µM, 3.03 µM, 6.74 µM.

In the case of `C=CCn1c(=O)c2cnc(Nc3ccc(N4CCN(C)CC4)cc3)nc2n1-c1cccc(C(C)(C)O)n1`, the IC50 is reported as 603 nM, 5.77 µM, 380 nM.

`O=C(NO)c1cnc(N2CCN(S(=O)(=O)c3ccc4ccccc4c3)CC2)nc1` was tested, and the viability, T/C (compound alone 1 µM) was 0.67%, 26.4%, 0.71%, the viability, T/C (compound alone 3.16 µM) was 0.37%, 27.7%, 0.49% and the viability, T/C (compound alone 10 µM) was 0.28%, 26.9%, 0.33%.

`COc1ncnc(C2CC2)c1-c1ncc2cnn(Cc3ccc(-c4nc(C(F)(F)F)cn4C(C)C)cc3)c2n1` was tested, and the viability, T/C (compound alone 10 µM) was 92.2%, 1.73%, 95.6%.

In the case of `Cc1[nH]c2ccccc2c1CCNCc1ccc(/C=C/C(=O)NO)cc1`, the viability, T/C (compound alone 0.316 µM) is reported as 1.65%, 91.2%, 1.71%.
